# Test results published in the supplement of paper PMC3334620.
# In all, about 33,000 sequences were measured (“E-score (-0.5 to 0.5)”: median about -0.013, highest 2% from about 0.3 on). Some of the results follow.
# Target: T1, Msn1 (UniProt P22148)
# T1 sequence: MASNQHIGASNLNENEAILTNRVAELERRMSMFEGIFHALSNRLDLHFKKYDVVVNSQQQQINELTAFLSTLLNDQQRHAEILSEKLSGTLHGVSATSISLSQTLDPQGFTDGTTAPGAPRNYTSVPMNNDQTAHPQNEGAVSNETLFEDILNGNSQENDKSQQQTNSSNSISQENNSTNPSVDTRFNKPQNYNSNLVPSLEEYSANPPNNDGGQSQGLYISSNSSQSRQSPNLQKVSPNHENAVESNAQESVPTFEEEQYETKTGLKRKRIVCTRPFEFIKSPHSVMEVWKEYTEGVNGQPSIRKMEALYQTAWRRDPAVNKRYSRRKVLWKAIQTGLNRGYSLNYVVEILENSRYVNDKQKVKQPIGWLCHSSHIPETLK
# Assay: PBM E-score (8-mer binding enrichment) (E-score (-0.5 to 0.5)); higher = stronger / more preferred TF binding; most listed sequences are background and not binding sites
# Conditions: protein concentration: 200 nM; construct: GST-full length
# Procedure, shortened: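 Bound GST-tagged yeast transcription factors, applied at about 100-200 nM to double-stranded universal all-10-mer Agilent arrays, were detected with fluorescent anti-GST. Scans were normalised with masliner. A modified Wilcoxon-Mann-Whitney statistic, the E-score, was assigned to each ungapped eight-base word pooled with its reverse complement by the Universal PBM Analysis Suite.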
row,Sequence,PBM E-score
1,CTGGGATC,-0.158
2,GCCCGGAA,0.0421
3,CAGAATAG,-0.0322
4,ACGTCCTG,0.0274
5,AAACGGAC,0.0649
6,GAGCCTGC,-0.0925
7,CTTAAGAA,0.153
8,CTCATTCA,-0.0495
9,CATTATAC,0.174
10,CCAGCCTC,-0.327
11,ATGAGCCC,-0.227
12,GCGTTGGA,-0.188
13,TAAAGCCA,0.0185
14,AAGGCGCC,-0.00662
15,CCAAGTCC,-0.0745
16,TCATGTCA,0.252
17,GAGGCATC,-0.229
18,AGACAGGA,0.175
19,CCGGGGGA,-0.303
20,ATGCAATG,-0.079
21,ATCGCTGC,-0.119
22,AGTTTCGG,0.0782
23,GAAACGCC,0.0413
24,TGCAGCAA,0.0669
25,ACCCTACT,-0.027

row,Sequence,PBM E-score
1,AAGGGGCA,-0.207
2,GGGGTTTA,-0.0517
3,CAGTTGCC,-0.0967
4,AAATGGGT,0.174
5,ATTATGGA,0.122
6,GCACAACC,-0.101
7,CTGATCTC,-0.0966
8,CAAATCTC,0.0618
9,CAAGCTGA,0.193
10,CTTCCTTA,-0.112
11,GATGTTGA,-0.0623
12,CCCTGTGC,-0.323
13,AGCGCTCG,-0.122
14,ACTCTGGG,-0.0921
15,TCTGACCA,0.0211
16,CCTCGCAC,-0.121
17,ACAACGAT,0.0393
18,CCCTCGGA,0.158
19,CAGGCCGA,0.0449
20,CGACCCAG,-0.155
21,CTTCTCAC,-0.198
22,AGCCGGCG,-0.0742
23,TCCGTAAA,0.167
24,GTAGAGCA,-0.186
25,ACACGACA,0.225

row,Sequence,PBM E-score
1,AAACGCTC,0.0143
2,CGTAGCAC,-0.0105
3,TCGATGCA,-0.18
4,GAGAGATC,-0.115
5,AATTGGGT,0.164
6,AAATCGAC,0.164
7,ATCGCCCA,-0.179
8,CTGACGTC,0.0524
9,TGATACCA,-0.0663
10,AGACAAGC,0.307
11,CTTCGGAC,0.285
12,ACAACCAC,0.069
13,CCACCGGA,0.171
14,GCGGCGAC,0.0426
15,ATCATTGC,0.0238
16,ACATGGCT,0.00755
17,ATGGATTA,-0.132
18,AGTTGGTG,-0.125
19,CCTCATAA,-0.00811
20,AACAGGGT,-0.179
21,CCCCTGCC,-0.263
22,CACGAGTA,0.0368
23,AACTACTG,-0.106
24,GGGGACAA,0.456
25,GAATACGA,0.0634

row,Sequence,PBM E-score
1,TCACATGA,-0.0579
2,ATGGATAG,-0.121
3,ATAGACAA,0.41
4,AGTTGCGC,0.00674
5,GGGGGTAA,-0.223
6,ACAGGGTA,-0.0164
7,GGGGGGGA,-0.349
8,AAGTAACG,0.184
9,AAGTTAGT,0.151
10,GATGAGGA,-0.149
11,AGGCGTTC,-0.25
12,GTATGAAA,0.111
13,TATAGACA,0.405
14,ATTCGAGC,-0.087
15,GGATTGAA,0.108
16,CGCTGCCA,-0.206
17,ACGTTTAT,0.0184
18,AGCAGACG,0.0267
19,GTCTTTGA,0.0824
20,CCACGATC,0.0204
21,CCTGCGGA,0.00937
22,CAACATCA,0.137
23,TAGGTACA,0.291
24,CTCAAGTA,0.0201
25,ACCCCCCC,-0.367

row,Sequence,PBM E-score
1,ACCCCGGC,-0.197
2,CAGATACA,0.258
3,GATAACGC,0.098
4,AGGCCAGC,-0.215
5,CGATAACG,0.0964
6,ACCAAAAT,-0.0821
7,CATGCATC,0.0333
8,ACACTCCG,0.0416
9,CAGAGTGA,-0.0608
10,AGGATGGC,-0.155
11,CTCATTGA,-0.179
12,AAGACCAC,-0.264
13,AACTCGAT,-0.0849
14,ATAAGATA,0.149
15,CAGTGTGC,-0.161
16,AGCAGCTG,-0.176
17,CGAGAGTA,0.095
18,AGTATAAG,0.00564
19,CGACAGTC,-0.182
20,GTAGGCGA,-0.0692
21,AAACCGTT,0.0554
22,GTAGCCAA,-0.0143
23,CCAGAGAG,-0.324
24,CGCTGGCC,-0.279
25,AATCACCG,-0.17

row,Sequence,PBM E-score
1,AATAGGAA,0.102
2,TGCCGAAA,0.112
3,CCGCTATA,0.0419
4,GTACTCAA,0.0241
5,ACGTGGGA,-0.0982
6,AATTCGAT,0.167
7,AGGCTATC,-0.084
8,AGAGGTTA,-0.0665
9,CCAGACGG,-0.323
10,ACAACTCA,0.171
11,CGATGCCC,-0.154
12,ATTGGAGA,0.0726
13,AATTGGAA,-0.0457
14,CGGTGCGA,0.033
15,GAGCACCA,-0.157
16,CACACGTG,-0.0558
17,CCGCCAAG,-0.121
18,CATCCGTA,0.00081
19,CGCCTGGC,-0.134
20,ACAAGACG,0.0049
21,GATCAAGC,-0.0561
22,AGGGGTGG,-0.213
23,CAAGACTG,0.0468
24,CAGATTGA,-0.119
25,GGTGGAGA,-0.396

row,Sequence,PBM E-score
1,CAATAGTG,0.0652
2,CTGGTGAC,-0.204
3,GGAAAGCA,0.00386
4,TGTCGAAA,0.126
5,CGAACTGC,-0.0553
6,CGACTTAA,0.0893
7,CTCCTGCC,-0.238
8,GGCAATAA,0.132
9,AGAAACTG,0.128
10,ATCTAGTG,-0.189
11,AGTAAGGG,0.0152
12,GCACAATA,-0.126
13,ATTGGAAG,-0.0559
14,GATGCGAA,-0.118
15,ATGTATCC,0.0899
16,ACCCTGCC,-0.244
17,GGCTCGCA,-0.102
18,AGGAATAA,0.119
19,ACAAATCT,0.308
20,ATACCATG,0.197
21,CCGATTTA,0.109
22,ACCTAAGA,-0.0145
